Results as given in patent US20040110688A1 (SAINT LOUIS UNIVERSITY, published 2004).

T1: factor VIIIa (human, UniProt P00451 20-2351)
T1 sequence (looked up): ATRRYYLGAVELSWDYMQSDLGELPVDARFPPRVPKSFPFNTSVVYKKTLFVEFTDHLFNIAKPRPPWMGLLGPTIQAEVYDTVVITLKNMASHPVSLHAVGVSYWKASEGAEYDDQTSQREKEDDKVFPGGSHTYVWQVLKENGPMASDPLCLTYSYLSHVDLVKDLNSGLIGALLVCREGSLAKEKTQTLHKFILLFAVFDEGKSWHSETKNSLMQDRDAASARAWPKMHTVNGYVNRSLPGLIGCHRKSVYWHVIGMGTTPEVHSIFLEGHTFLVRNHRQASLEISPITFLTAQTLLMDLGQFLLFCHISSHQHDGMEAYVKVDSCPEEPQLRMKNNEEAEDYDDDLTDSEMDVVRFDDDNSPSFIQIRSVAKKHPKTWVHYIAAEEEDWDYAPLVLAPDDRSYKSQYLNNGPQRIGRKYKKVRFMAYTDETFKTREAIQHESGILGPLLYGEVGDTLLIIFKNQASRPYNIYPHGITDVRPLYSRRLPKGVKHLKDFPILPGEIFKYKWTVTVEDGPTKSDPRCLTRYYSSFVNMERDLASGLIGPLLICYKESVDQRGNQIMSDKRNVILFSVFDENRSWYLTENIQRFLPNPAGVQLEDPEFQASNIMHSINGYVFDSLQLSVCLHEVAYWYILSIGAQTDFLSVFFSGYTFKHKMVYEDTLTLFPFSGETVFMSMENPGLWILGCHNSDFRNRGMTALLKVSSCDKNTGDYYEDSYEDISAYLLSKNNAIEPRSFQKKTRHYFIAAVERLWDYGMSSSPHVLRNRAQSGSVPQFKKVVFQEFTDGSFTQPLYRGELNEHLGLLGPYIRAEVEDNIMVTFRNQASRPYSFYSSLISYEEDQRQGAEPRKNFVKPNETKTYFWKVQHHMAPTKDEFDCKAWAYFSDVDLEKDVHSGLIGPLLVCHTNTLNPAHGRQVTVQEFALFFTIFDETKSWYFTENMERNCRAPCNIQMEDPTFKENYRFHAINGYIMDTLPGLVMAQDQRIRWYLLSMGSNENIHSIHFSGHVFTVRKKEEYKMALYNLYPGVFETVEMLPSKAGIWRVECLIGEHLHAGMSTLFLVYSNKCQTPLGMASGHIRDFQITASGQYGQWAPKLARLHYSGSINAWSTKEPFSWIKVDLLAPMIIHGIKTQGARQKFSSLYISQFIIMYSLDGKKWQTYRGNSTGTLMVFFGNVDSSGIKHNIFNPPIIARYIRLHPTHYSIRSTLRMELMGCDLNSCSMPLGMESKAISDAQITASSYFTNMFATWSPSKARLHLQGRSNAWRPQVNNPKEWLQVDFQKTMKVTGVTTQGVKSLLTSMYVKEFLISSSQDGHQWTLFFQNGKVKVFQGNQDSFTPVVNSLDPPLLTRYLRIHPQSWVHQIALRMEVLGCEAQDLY

B1: DEGR-IXaR333L (enzyme)
chain 1: YNSGKLEEFVQGNLERECMEEKCSFEEAREVFENTERTTEFWKQYVDGDQCESNPCLNGGSCKDDINSYECWCPFGFEGKNCELDVTCNIKNGRCEQFCKNSADNKVVCSCTEGYRLAENQKSCEPAVPFPCGRVSVSQTSKLTR
chain 2: [omitted - about 250 residues with changes]
modifications: active site blocked with dansyl-Glu-Gly-Arg-chloromethyl ketone (DEGR-ck); gamma-carboxyglutamic acid residues in the Gla domain (11.5 to 12.5 per mol)
B2: DEGR-IXaR333Q (enzyme)
chain 1: B1 chain 1
chain 2: [omitted - about 250 residues with changes]
modifications: active site blocked with dansyl-Glu-Gly-Arg-chloromethyl ketone (DEGR-ck); gamma-carboxyglutamic acid residues in the Gla domain (11.5 to 12.5 per mol)
B3: DEGR-IXaL337I (enzyme)
chain 1: B1 chain 1
chain 2: [omitted - about 250 residues with changes]
modifications: active site blocked with dansyl-Glu-Gly-Arg-chloromethyl ketone (DEGR-ck); gamma-carboxyglutamic acid residues in the Gla domain (11.5 to 12.5 per mol)
B4: DEGR-IXaD332Y (enzyme)
chain 1: B1 chain 1
chain 2: [omitted - about 250 residues with changes]
modifications: active site blocked with dansyl-Glu-Gly-Arg-chloromethyl ketone (DEGR-ck); gamma-carboxyglutamic acid residues in the Gla domain (11.5 to 12.5 per mol)
B5: DEGR-IXaT335A (enzyme)
chain 1: B1 chain 1
chain 2: [omitted - about 250 residues with changes]
modifications: active site blocked with dansyl-Glu-Gly-Arg-chloromethyl ketone (DEGR-ck); gamma-carboxyglutamic acid residues in the Gla domain (11.5 to 12.5 per mol)
B6: DEGR-IXaL330I (enzyme)
chain 1: B1 chain 1
chain 2: [omitted - about 250 residues with changes]
modifications: active site blocked with dansyl-Glu-Gly-Arg-chloromethyl ketone (DEGR-ck); gamma-carboxyglutamic acid residues in the Gla domain (11.5 to 12.5 per mol)
B7: DEGR-IXaR338Q (enzyme)
chain 1: B1 chain 1
chain 2: [omitted - about 250 residues with changes]
modifications: active site blocked with dansyl-Glu-Gly-Arg-chloromethyl ketone (DEGR-ck); gamma-carboxyglutamic acid residues in the Gla domain (11.5 to 12.5 per mol)

Target: T1, factor VIIIa
Experiment: Kd,app from inhibition of Xa generation; with phospholipid

Which “fold-reduction in affinity compared with DEGR-IXaWT” value (shortened to “fold-reduction in affinity”) does the source give for B1 here?
The value was 149 fold.

With B2 as the binder, how does the “fold-reduction in affinity” value read?
The value was 130 fold.

B3 was tested. Which “fold-reduction in affinity” value did it give?
The value was 91 fold.

How did the “fold-reduction in affinity” value turn out when B4 was run?
The value was 52 fold.

Target: T1, factor VIIIa
Experiment: Kd,app from inhibition of Xa generation; without phospholipid

Which “fold-reduction in affinity” value does the source give for B1 here?
Its value is 67 fold.

Which “fold-reduction in affinity” value does the source give for B2 here?
The value was 41 fold.

B3 was tested. Which “fold-reduction in affinity” value did it give?
The value was 32 fold.

With B4 as the binder, how does the “fold-reduction in affinity” value read?
The value was 27 fold.

Target: T1, factor VIIIa
Experiment: Kd,app from inhibition of Xa generation; in the presence or absence of phospholipid

Which “fold reduced affinity compared with DEGR-IXaWT” value does the source give for B5 here?
Its value is roughly 2.5 fold.

Which “fold reduced affinity compared with DEGR-IXaWT” value does the source give for B6 here?
The value was roughly 4 fold.

Target: T1, factor VIIIa
Experiment: Kd,app: DEGR-IXa protein competes with IXaWT for VIIIa, read as inhibition of Xa generation; with phospholipid

With B1 as the binder, how does the Kd read?
The Kd was 8.21 nM.

For B2, which Kd is on record?
The Kd was 7.15 nM.

With B5 as the binder, how does the Kd read?
The Kd was 0.14 nM.

How did the Kd turn out when B3 was run?
The Kd was 5.05 nM.

Which Kd does the source give for B7 here?
Its Kd is 0.077 nM.

For B6, which Kd is on record?
Its Kd is 0.23 nM.

For B4, which Kd is on record?
Its Kd is 2.86 nM.

Target: T1, factor VIIIa
Experiment: Kd,app: DEGR-IXa protein competes with IXaWT for VIIIa, read as inhibition of Xa generation; without phospholipid

With B1 as the binder, how does the Kd read?
The Kd was 12700 nM.

B2 was tested. Which Kd did it give?
The Kd was 7790 nM.

B5 was tested. Which Kd did it give?
Its Kd is 460 nM.

For B3, which Kd is on record?
Its Kd is 6180 nM.

B7 was tested. Which Kd did it give?
The Kd was 210 nM.

How did the Kd turn out when B6 was run?
Its Kd is 720 nM.

With B4 as the binder, how does the Kd read?
Its Kd is 5130 nM.
